Test results reported in the RNAGym collection of RNA variant scans (doi:10.1093/nar/gkz1192).
The source gives no read counts; variants with many changes may rest on few reads.

B1: CPEB3 Ribozyme (parent)
chain: UAACAGGGGGCCACAGCAGAAGCGUUCACGUCGCAGCCCCUGUCAGAUUCUGGUGAAUCUGCGAAUUCUGCUGUAUAUCUC

Variants of: B1
Assay: self-cleavage, relative activity (ratio to wild type); higher = more cleavage; in vitro, sequencing
Method in brief: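 Relative activity was defined as the cleaved/total read fraction for a variant divided by the same fraction for the unmutated ribozyme. CPEB3 self-cleaving ribozyme libraries were made by rounds of error-prone PCR, barcoded, and transcribed in vitro with T7 RNA polymerase for 5 hours at 37°C, and cleavage ran through transcription plus a 15 min DNase I step before EDTA. Illumina sequencing of template-switched reverse transcripts gave the reads, and DNA sequencing mapped the barcodes. Averages come from three batches, using variants with at least 5 reads.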

| Variant | self-cleavage |
| --- | --- |
| C38A A57G U80A | 0.1 |
| C38A C40A U69G U80A | 0.17 |
| C38A U41A A56G A57G A64U U76C | 0.05 |
| C38A U41A U66C | 0.42 |
| C38A U41C A56G U67A | 0.12 |
| C38A U43A U49C | 0.06 |
| C38A U43C U72A | 0.26 |
| C38A U48C A57G | 0.19 |
| C38A U51C U54C | 0.15 |
| C38G A45G U51A A75U | 0.15 |
| C38G G55U A57U | 0.17 |
| C38G U43A A45G A64U G73A U80C | 0.05 |
| C38G U54C U58C | 0.12 |
| C38U A45G A64U | 0.15 |
| C38U A45G A65G U67C A77G | 0.09 |
| C38U A45G A75G U80C | 0.17 |
| C38U A45G U49C A77U | 0.25 |
| C38U A64G U67A | 0.3 |
| C38U C39A U43C G52C U58C | 0.16 |
| C38U C39U U43C A57G C71A | 0.06 |
| C38U C40U U54A A64G U67C | 0.18 |
| C38U U41C U80G | 1.17 |
| C38U U43C U49A U67C | 0.07 |
| C38U U48C A65G | 0.17 |

| Variant | self-cleavage |
| --- | --- |
| C38U U48C U49G | 0.17 |
| C38U U67A U72C A75G | 0.22 |
| C39A A45C A56G U60C | 0.14 |
| C39A A45C U60C A65G | 0.1 |
| C39A A45G U49C | 0.08 |
| C39A A64G U72C | 0.17 |
| C39A A64U U72A | 0.13 |
| C39A C40U G63A C68A U74C A77U | 0.06 |
| C39A G52C A56G | 0.17 |
| C39A U43A U49C U69G | 0.06 |
| C39A U43C A77U | 0.42 |
| C39A U43C U78C | 0.17 |
| C39A U48C A64G | 0.15 |
| C39A U49C A64U | 0.14 |
| C39A U51C U58A | 0.1 |
| C39A U51C U69C C71U | 0.12 |
| C39A U51C U72C | 0.43 |
| C39A U67C A77U | 0.08 |
| C39G U41C A57G | 0.75 |
| C39G U41C C81U | 0.25 |
| C39G U41C U67A | 0.22 |
| C39G U43C A47G U66C U72C A77U | 0.23 |
| C39G U43C U51C U67C U69G U72C U76C | 0.11 |
| C39G U49C C68U | 0.06 |

| Variant | self-cleavage |
| --- | --- |
| C39U A47G U48C | 0.21 |
| C39U A56G A57U U58C A64G U74C | 0.06 |
| C39U A57G A77G | 0.14 |
| C39U A64G U66C | 0.13 |
| C39U A64G U69C U78C | 0.07 |
| C39U A65C U76C | 0.15 |
| C39U G46A U54A U58C A64G | 0.06 |
| C39U G52U A56G U78C | 0.71 |
| C39U U41A A57G U60A A64G U67C U74A | 0.07 |
| C39U U43C A65G | 0.16 |
| C39U U43C U60C | 0.16 |
| C39U U49A U51A | 0.26 |
| C39U U58A C59U | 0.17 |
| C40A A45G U51C U66C | 0.13 |
| C40A A45U A64G U66C A77G | 0.08 |
| C40A A45U U58C | 0.22 |
| C40A A47G U69A | 0.13 |
| C40A A56G A77U | 0.09 |
| C40A A56U A57G G70C | 0.08 |
| C40A C44U A45G A47G G61U U72A | 0.28 |
| C40A U49A U72C U76C | 0.22 |
| C40A U54A A56U | 0.36 |
| C40G A45G U49C U72C | 0.13 |
| C40G U43C A77U | 0.27 |

| Variant | self-cleavage |
| --- | --- |
| C40U A45G G46U U72C | 0.1 |
| C40U A45G G52A | 0.84 |
| C40U A45G U66G U78C | 0.15 |
| C40U A45G U69A U78C | 0.26 |
| C40U A45G U72C | 1 |
| C40U A45U U60A U69G | 0.29 |
| C40U A45U U78C U80C | 0.1 |
| C40U A47U A57G | 0.09 |
| C40U A47U U49C | 0.45 |
| C40U A65U A75G | 0.13 |
| C40U C44U A75G U78C | 0.11 |
| C40U U41A A47G | 0.21 |
| C40U U41A U51A U80C | 0.13 |
| C40U U41C A47U U58C U60A | 0.14 |
| C40U U41C A65U | 0.31 |
| C40U U41C U72C | 1.07 |
| C40U U60C U69C A75G | 0.09 |
| U41A A45G U49C U80C | 0.08 |
| U41A A47G A56U A77G | 0.1 |
| U41A A47G G52U | 0.26 |
| U41A A47G U60C | 0.24 |
| U41A A47G U69C | 0.21 |
| U41A A47U U51C A56G A64G U66G | 0.09 |
| U41A A56G C62U U67G | 0.3 |

| Variant | self-cleavage |
| --- | --- |
| U41A A56G U67G | 0.03 |
| U41A A56G U69C | 0.19 |
| U41A A56U A57G | 0.16 |
| U41A A56U U58A U66C U72C U78C | 0.16 |
| U41A A56U U58C A65U A75G | 0.14 |
| U41A A64U G73U | 0.26 |
| U41A A65G U72C U74C | 0.21 |
| U41A A65U U66C U74C | 0.14 |
| U41A C50A A56G | 0.11 |
| U41A C59A A64U U67A U69C A75G | 0.04 |
| U41A C59A U60A | 0.11 |
| U41A C62G U69C | 0.13 |
| U41A C71A U74C | 0.12 |
| U41A G42A U43C U48A | 0.21 |
| U41A G46C U54A U72C | 0.24 |
| U41A G53A A64U A77G | 0.13 |
| U41A G55A U66C | 0.08 |
| U41A G61C U80C | 0.11 |
| U41A U43A U58C U72C | 0.15 |
| U41A U43C G53A U58C U72C A77C C81U | 0.12 |
| U41A U43C U51C A56G U80A | 0.21 |
| U41A U43C U78C | 0.2 |
| U41A U43G U58G | 0.26 |
| U41A U43G U74C | 0.31 |

| Variant | self-cleavage |
| --- | --- |
| U41A U48C A56G U60A | 0.16 |
| U41A U49A G63U U80C | 0.1 |
| U41A U49A U51A G52C U69C U80C | 0.17 |
| U41A U49C A56G U69C U72A U80A | 0.08 |
| U41A U49C A65G | 0.09 |
| U41A U49C U60C | 0.12 |
| U41A U51A U69A | 0.1 |
| U41A U51C A64G U67A | 0.22 |
| U41A U51C U66G | 0.23 |
| U41A U51C U80C | 0.41 |
| U41A U54A A64G U66C | 0.08 |
| U41A U54C A56U | 0.09 |
| U41A U54C G73U | 0.68 |
| U41A U54C U78C | 0.18 |
| U41A U58C A65C G70C | 0.09 |
| U41A U58C U69C | 0.27 |
| U41A U60A A77U | 0.35 |
| U41A U60A U78C | 0.08 |
| U41A U67C U69A U72C | 0.26 |
| U41A U69C U80A | 0.19 |
| U41A U72C U74C | 0.63 |
| U41C A45G A47G U49A | 0.41 |
| U41C A45G A65U | 0.19 |
| U41C A45G U48C A57G A64G A65G C68A | 0.03 |

| Variant | self-cleavage |
| --- | --- |
| U41C A45G U49C | 0.14 |
| U41C A45G U66C | 0.49 |
| U41C A45U G73A | 0.74 |
| U41C A45U U67C U69A | 0.2 |
| U41C A47G A57G | 0.88 |
| U41C A47G A57U | 0.43 |
| U41C A47G C79A U80C | 1.29 |
| U41C A47G U48C U54C | 0.16 |
| U41C A47G U51C | 0.7 |
| U41C A47G U51G U58A | 0.25 |
| U41C A47G U54C U72G U76C | 0.87 |
| U41C A47G U66C | 0.46 |
| U41C A47G U80C | 0.96 |
| U41C A47U A64G | 0.53 |
| U41C A47U U48C | 0.08 |
| U41C A47U U69G U72C | 0.53 |
| U41C A56G C62G U69A | 0.29 |
| U41C A56G G61U U69C A75U | 0.38 |
| U41C A56G U66C U69A | 0.27 |
| U41C A56G U67C | 0.19 |
| U41C A56U U67C | 0.32 |
| U41C A57G U66G | 0.3 |
| U41C A57G U72C | 1.01 |
